From the supplement of paper PMC11741623
This is one part of the list. Interaction screen of human proteins with wild-type SARS-CoV-2 proteins by split-DHFR complementation in yeast, 1 µg/mL methotrexate. Value = fitness of the pair (three or more lineages) minus that of the viral protein without a human partner, on a scale set by negative (0) and fused positive (1) controls, mean of up to three cultures; higher = more likely to interact. Active = false discovery rate below 0.05 (one-sided t-test) in at least one culture. Nearly all pairs are not hits, and differences among them are mostly noise (correlation between cultures about 0.3); most hits were seen in one culture only. Human sequences are the Swiss-Prot entries looked up by gene name; the clone may be another isoform. NSP2 values were corrected by the authors for a growth advantage. Listed are human proteins with a hit and a random twelfth of the others.

Legend:
Test in all cases: yeast fitness gain over the viral ORF with no human partner (scaled fitness); higher = more likely to interact
SARS-CoV-2 E = system: SARS-CoV-2 E
Method: (§1)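 Split mouse DHFR complementation in pooled diploid yeast: human ORFeome clones carry one fragment and viral ORFs the other; barcoded lineages compete in 1 µg/mL methotrexate and fitness is read by barcode sequencing in up to three cultures.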

SARS-CoV-2 M = system: SARS-CoV-2 M
Method: as §1

SARS-CoV-2 NSP10 = system: SARS-CoV-2 NSP10
Method: as §1

SARS-CoV-2 NSP13 = system: SARS-CoV-2 NSP13
Method: as §1

SARS-CoV-2 NSP15 = system: SARS-CoV-2 NSP15
Method: as §1

SARS-CoV-2 NSP16 = system: SARS-CoV-2 NSP16
Method: as §1

SARS-CoV-2 NSP1 = system: SARS-CoV-2 NSP1
Method: as §1

SARS-CoV-2 NSP2 = system: SARS-CoV-2 NSP2
Method: as §1

SARS-CoV-2 NSP5 = system: SARS-CoV-2 NSP5
Method: as §1

SARS-CoV-2 NSP7 = system: SARS-CoV-2 NSP7
Method: as §1

SARS-CoV-2 NSP8 = system: SARS-CoV-2 NSP8
Method: as §1

SARS-CoV-2 ORF10 = system: SARS-CoV-2 ORF10
Method: as §1

SARS-CoV-2 ORF3A = system: SARS-CoV-2 ORF3A
Method: as §1

SARS-CoV-2 ORF3B = system: SARS-CoV-2 ORF3B
Method: as §1

SARS-CoV-2 ORF6 = system: SARS-CoV-2 ORF6
Method: as §1

SARS-CoV-2 ORF7A = system: SARS-CoV-2 ORF7A
Method: as §1

SARS-CoV-2 ORF7B = system: SARS-CoV-2 ORF7B
Method: as §1

SARS-CoV-2 ORF8 = system: SARS-CoV-2 ORF8
Method: as §1

SARS-CoV-2 S = system: SARS-CoV-2 S
Method: as §1

SARS-CoV-2 NSP14 = system: SARS-CoV-2 NSP14
Method: as §1

SARS-CoV-2 NSP4 = system: SARS-CoV-2 NSP4
Method: as §1

SARS-CoV-2 NSP6 = system: SARS-CoV-2 NSP6
Method: as §1

SARS-CoV-2 NSP9 = system: SARS-CoV-2 NSP9
Method: as §1

SARS-CoV-2 N = system: SARS-CoV-2 N
Method: as §1

Substance	yeast fitness gain (SARS-CoV-2 E)	yeast fitness gain (SARS-CoV-2 M)	yeast fitness gain (SARS-CoV-2 NSP10)	yeast fitness gain (SARS-CoV-2 NSP13)	yeast fitness gain (SARS-CoV-2 NSP15)	yeast fitness gain (SARS-CoV-2 NSP16)	yeast fitness gain (SARS-CoV-2 NSP1)	yeast fitness gain (SARS-CoV-2 NSP2)	yeast fitness gain (SARS-CoV-2 NSP5)	yeast fitness gain (SARS-CoV-2 NSP7)	yeast fitness gain (SARS-CoV-2 NSP8)	yeast fitness gain (SARS-CoV-2 ORF10)	yeast fitness gain (SARS-CoV-2 ORF3A)	yeast fitness gain (SARS-CoV-2 ORF3B)	yeast fitness gain (SARS-CoV-2 ORF6)	yeast fitness gain (SARS-CoV-2 ORF7A)	yeast fitness gain (SARS-CoV-2 ORF7B)	yeast fitness gain (SARS-CoV-2 ORF8)	yeast fitness gain (SARS-CoV-2 S)	yeast fitness gain (SARS-CoV-2 NSP14)	yeast fitness gain (SARS-CoV-2 NSP4)	yeast fitness gain (SARS-CoV-2 NSP6)	yeast fitness gain (SARS-CoV-2 NSP9)	yeast fitness gain (SARS-CoV-2 N)
KLF6, Q99612	inactive: -0.12	inactive: 0.127	inactive: -0.0266	inactive: 0.0189	inactive: -0.0334	inactive: -0.0239	inactive: -0.122	inactive: -0.171	inactive: 0.0581	inactive: -0.0138	inactive: 0.0961	inactive: 0.0878	inactive: -0.0205	inactive: -0.0496	inactive: 0.0126	inactive: -0.0895	inactive: -0.0694	inactive: -0.00986	inactive: 0.0788	–	–	–	–	–
FAM19A3, Q7Z5A8	–	inactive: -0.044	inactive: -0.0434	inactive: 0.0145	–	–	inactive: 0.063	inactive: -0.209	inactive: 0.162	–	inactive: 0.0708	inactive: -0.0268	–	inactive: -0.187	inactive: -0.00375	inactive: -0.0379	inactive: 0.0586	inactive: -0.0134	inactive: -0.00362	inactive: -0.0743	inactive: -0.0198	inactive: -0.0179	inactive: -0.0225	–
IHH, Q14623	inactive: -0.0417	inactive: 0.0808	inactive: 0.0182	inactive: 0.0264	inactive: -0.00266	inactive: -0.0365	inactive: 0.0586	inactive: -0.0287	inactive: 0.00361	inactive: 0.0375	inactive: 0.00317	inactive: 0.00256	inactive: 0.0566	inactive: 0.0194	inactive: 0.047	inactive: 0.0184	inactive: 0.0381	inactive: -0.00131	inactive: 0.124	inactive: 0.0723	inactive: 0.0616	inactive: 0.0232	inactive: 0.0671	inactive: 0.0669
RALYL, Q86SE5	inactive: 0.0109	–	inactive: -0.163	inactive: -0.0505	inactive: 0.0176	–	–	active: 0.623	inactive: -0.0153	–	inactive: -0.514	inactive: -0.15	inactive: -0.0245	inactive: 0.0647	inactive: -0.0245	inactive: -0.192	inactive: -0.171	inactive: -0.188	inactive: -0.0692	–	–	inactive: -0.075	–	–
ZNF517, Q6ZMY9	inactive: -0.0201	inactive: 0.0289	inactive: 0.0173	inactive: -0.00375	inactive: 0.0301	inactive: 0.0213	inactive: 0.0454	inactive: -0.101	inactive: -0.0108	inactive: 0.0609	inactive: -0.00411	inactive: -0.0155	inactive: -0.0612	inactive: -0.0576	inactive: 0.0343	inactive: 0.0124	inactive: -0.0184	inactive: 0.0128	inactive: -0.0238	inactive: -0.0625	inactive: 0.0226	inactive: 0.0514	inactive: 0.063	inactive: -0.0129
TLX3, O43711	–	inactive: 0.0149	inactive: 0.0299	inactive: 0.0303	inactive: 0.0667	inactive: 0.0237	inactive: -0.0822	inactive: -0.0779	inactive: -0.0841	inactive: 0.00573	inactive: -0.06	inactive: 0.041	–	inactive: 0.0169	inactive: -0.0261	inactive: 0.0577	inactive: -0.0209	inactive: -0.0596	inactive: 0.0596	–	–	inactive: -0.052	inactive: 0.071	inactive: -0.137
OXCT1, P55809	inactive: -0.027	inactive: -0.0462	inactive: -0.05	inactive: 0.00509	inactive: 0.0968	–	inactive: 0.00157	inactive: -0.196	inactive: -0.03	inactive: -0.166	inactive: -0.00146	inactive: -0.0491	–	inactive: -0.0713	inactive: 0.0439	–	inactive: -0.1	inactive: -0.0328	inactive: 0.0146	–	–	inactive: -0.053	–	inactive: -0.0796
FAM136A, Q96C01	inactive: 0.0594	inactive: 0.0637	inactive: 0.00537	inactive: -0.0449	inactive: 0.097	inactive: -0.0329	inactive: -0.00677	active: 0.148	inactive: -0.0325	inactive: -0.0635	inactive: -0.000434	inactive: 0.0384	inactive: -1.2e-05	inactive: 0.018	inactive: 0.0411	inactive: 0.00474	inactive: 0.0159	inactive: 0.00334	inactive: 0.0153	inactive: 0.0638	inactive: -0.123	inactive: 0.0641	inactive: 0.189	–
RGS3, P49796	inactive: -0.014	inactive: -0.0573	inactive: 0.0395	inactive: -0.0131	inactive: -0.107	inactive: -0.0688	inactive: -0.0285	inactive: -0.0569	inactive: -0.0843	inactive: -0.0403	inactive: -0.0457	inactive: 0.0746	inactive: -0.0115	inactive: -0.052	inactive: -0.013	inactive: -0.0992	inactive: -0.0281	inactive: 0.0347	inactive: 0.0717	inactive: 0.0335	inactive: -0.357	inactive: 0.00972	inactive: -0.0403	–
HSPB7, Q9UBY9	–	inactive: 0.0153	inactive: -0.0707	inactive: -0.116	inactive: -0.0905	inactive: -0.0748	inactive: 0.0253	inactive: -0.166	inactive: -0.0754	inactive: -0.0791	inactive: 0.0883	inactive: 0.0632	–	inactive: 0.0212	inactive: 0.0566	inactive: 0.0582	inactive: -0.0423	inactive: -0.0628	inactive: -0.0261	–	–	inactive: -0.0106	–	–
TIMM50, Q3ZCQ8	inactive: 0.141	inactive: 0.0601	inactive: 0.0102	inactive: -0.0038	inactive: -0.0243	inactive: 0.0486	inactive: -0.0235	inactive: -0.0841	inactive: 0.045	inactive: 0.000258	inactive: 0.0201	inactive: 0.0189	–	inactive: 0.0601	inactive: -0.05	inactive: -0.0414	inactive: 0.0235	inactive: 0.0135	inactive: 0.0396	inactive: -0.242	inactive: 0.0197	–	inactive: 0.0599	inactive: -0.025
MT2A, P02795	–	inactive: -0.161	inactive: -0.0802	inactive: -0.0301	inactive: 0.0534	inactive: 0.103	inactive: 0.0131	inactive: -0.139	inactive: 0.0182	inactive: -0.0343	inactive: 0.102	inactive: -0.0147	inactive: 0.0307	inactive: -0.0201	inactive: -0.0209	inactive: -0.0741	inactive: -0.203	inactive: -0.136	inactive: -0.0198	–	–	inactive: 0.0058	inactive: 0.067	inactive: -0.204
NDRG4, Q9ULP0	inactive: 0.0249	inactive: -0.0582	inactive: 0.015	inactive: 0.0465	inactive: 0.05	inactive: 0.0498	inactive: -0.0244	inactive: -0.0475	inactive: -0.00183	inactive: -0.000215	inactive: -0.00277	inactive: 0.0133	inactive: 0.0449	inactive: 0.0531	inactive: 0.0163	inactive: -0.0209	inactive: -0.00928	inactive: 0.0453	inactive: 0.0245	inactive: 0.0602	inactive: 0.103	inactive: 0.0124	inactive: -0.0327	inactive: -0.0357
MAGEA10, P43363	inactive: -0.00264	inactive: 0.101	inactive: 0.0595	inactive: 0.0776	–	inactive: 0.0125	inactive: 0.0876	inactive: -0.0195	inactive: 0.0184	inactive: 0.0678	inactive: -0.0188	inactive: -0.0211	–	inactive: -0.0306	inactive: -0.00523	inactive: 0.0851	inactive: -0.0187	inactive: 0.00384	inactive: -0.0294	–	–	inactive: -0.0302	inactive: 0.0467	inactive: -0.00522
